According to patent publication US5346913A, “N-iodopropargyl hydantoin compounds, compositions, preparation, and use as antimicrobial agents” (Rohm and Haas Company, priority 1992, dated 1994):

Columns and labels:
Botrytis cinerea = experiment: microbe, parasite or virus in culture; conditions: read-out: % Control BOC
Pythium ultimum = experiment: In-vitro plant disease test, PYU; conditions: Globisporangium ultimum, read-out: % Control PYU
From the text: PYU Pythium ultimum (Oomycete)
(§1) 1 week old: PYU, PHY, RHI; b. […] 3 weeks old: PSH, VEN.
(§2) There are two replications per treatment.
(§3) There are 2 replicates per treatment.

Phytophthora capsici = experiment: In-vitro plant disease test, PHY; conditions: read-out: % Control PHY
From the text: PHY Phytophthora capsici (Oomycete)
as §1, §2, §3

Cochliobolus sativus = experiment: In-vitro plant disease test, HEL; assay type: cell-based; conditions: Bipolaris sorokiniana, read-out: % Control HEL
Septoria nodorum = experiment: In-vitro plant disease test, SEP; conditions: Parastagonospora nodorum, read-out: % Control SEP
From the text: SEP Septoria nodorum (Ascomycete)
as §1, §2, §3

Compound	inhibition of growth at 25 ppm (Botrytis cinerea) [%]	inhibition of growth at 25 ppm (Pythium ultimum; 25 PPM) [%]	inhibition of growth at 50 ppm (Pythium ultimum; 50 PPM) [%]	inhibition of growth at 25 ppm (Phytophthora capsici; 25 PPM) [%]	inhibition of growth at 50 ppm (Phytophthora capsici; 50 PPM) [%]	inhibition of growth at 50 ppm (Cochliobolus sativus) [%]	inhibition of growth at 25 ppm (Septoria nodorum; 25 PPM) [%]	inhibition of growth at 50 ppm (Septoria nodorum; 50 PPM) [%]	inhibition of growth at 50 ppm (Botrytis cinerea) [%]
CC1(C)NC(=O)N(CC#CI)C1=O [Compound 12]	0	–	–	–	–	–	–	–	–
CC1(C)C(=O)N(CC#CI)C(=O)N1CC#CI [Compound 11]	0	100	100	0	100	100	100	100	95
